The record followed here is PMC10076317, “Extended DNA threading through a dual-engine motor module of the activating signal co-integrator 1 complex” (Nature Communications, 2023).

By UniProt entry, the sequences of proteins in these tests, tags left out. Where a name states a change or a piece, a line headed by the entry shows the natural chain unless it says otherwise. Residues count along the entry.
UniProt Q8N3C0: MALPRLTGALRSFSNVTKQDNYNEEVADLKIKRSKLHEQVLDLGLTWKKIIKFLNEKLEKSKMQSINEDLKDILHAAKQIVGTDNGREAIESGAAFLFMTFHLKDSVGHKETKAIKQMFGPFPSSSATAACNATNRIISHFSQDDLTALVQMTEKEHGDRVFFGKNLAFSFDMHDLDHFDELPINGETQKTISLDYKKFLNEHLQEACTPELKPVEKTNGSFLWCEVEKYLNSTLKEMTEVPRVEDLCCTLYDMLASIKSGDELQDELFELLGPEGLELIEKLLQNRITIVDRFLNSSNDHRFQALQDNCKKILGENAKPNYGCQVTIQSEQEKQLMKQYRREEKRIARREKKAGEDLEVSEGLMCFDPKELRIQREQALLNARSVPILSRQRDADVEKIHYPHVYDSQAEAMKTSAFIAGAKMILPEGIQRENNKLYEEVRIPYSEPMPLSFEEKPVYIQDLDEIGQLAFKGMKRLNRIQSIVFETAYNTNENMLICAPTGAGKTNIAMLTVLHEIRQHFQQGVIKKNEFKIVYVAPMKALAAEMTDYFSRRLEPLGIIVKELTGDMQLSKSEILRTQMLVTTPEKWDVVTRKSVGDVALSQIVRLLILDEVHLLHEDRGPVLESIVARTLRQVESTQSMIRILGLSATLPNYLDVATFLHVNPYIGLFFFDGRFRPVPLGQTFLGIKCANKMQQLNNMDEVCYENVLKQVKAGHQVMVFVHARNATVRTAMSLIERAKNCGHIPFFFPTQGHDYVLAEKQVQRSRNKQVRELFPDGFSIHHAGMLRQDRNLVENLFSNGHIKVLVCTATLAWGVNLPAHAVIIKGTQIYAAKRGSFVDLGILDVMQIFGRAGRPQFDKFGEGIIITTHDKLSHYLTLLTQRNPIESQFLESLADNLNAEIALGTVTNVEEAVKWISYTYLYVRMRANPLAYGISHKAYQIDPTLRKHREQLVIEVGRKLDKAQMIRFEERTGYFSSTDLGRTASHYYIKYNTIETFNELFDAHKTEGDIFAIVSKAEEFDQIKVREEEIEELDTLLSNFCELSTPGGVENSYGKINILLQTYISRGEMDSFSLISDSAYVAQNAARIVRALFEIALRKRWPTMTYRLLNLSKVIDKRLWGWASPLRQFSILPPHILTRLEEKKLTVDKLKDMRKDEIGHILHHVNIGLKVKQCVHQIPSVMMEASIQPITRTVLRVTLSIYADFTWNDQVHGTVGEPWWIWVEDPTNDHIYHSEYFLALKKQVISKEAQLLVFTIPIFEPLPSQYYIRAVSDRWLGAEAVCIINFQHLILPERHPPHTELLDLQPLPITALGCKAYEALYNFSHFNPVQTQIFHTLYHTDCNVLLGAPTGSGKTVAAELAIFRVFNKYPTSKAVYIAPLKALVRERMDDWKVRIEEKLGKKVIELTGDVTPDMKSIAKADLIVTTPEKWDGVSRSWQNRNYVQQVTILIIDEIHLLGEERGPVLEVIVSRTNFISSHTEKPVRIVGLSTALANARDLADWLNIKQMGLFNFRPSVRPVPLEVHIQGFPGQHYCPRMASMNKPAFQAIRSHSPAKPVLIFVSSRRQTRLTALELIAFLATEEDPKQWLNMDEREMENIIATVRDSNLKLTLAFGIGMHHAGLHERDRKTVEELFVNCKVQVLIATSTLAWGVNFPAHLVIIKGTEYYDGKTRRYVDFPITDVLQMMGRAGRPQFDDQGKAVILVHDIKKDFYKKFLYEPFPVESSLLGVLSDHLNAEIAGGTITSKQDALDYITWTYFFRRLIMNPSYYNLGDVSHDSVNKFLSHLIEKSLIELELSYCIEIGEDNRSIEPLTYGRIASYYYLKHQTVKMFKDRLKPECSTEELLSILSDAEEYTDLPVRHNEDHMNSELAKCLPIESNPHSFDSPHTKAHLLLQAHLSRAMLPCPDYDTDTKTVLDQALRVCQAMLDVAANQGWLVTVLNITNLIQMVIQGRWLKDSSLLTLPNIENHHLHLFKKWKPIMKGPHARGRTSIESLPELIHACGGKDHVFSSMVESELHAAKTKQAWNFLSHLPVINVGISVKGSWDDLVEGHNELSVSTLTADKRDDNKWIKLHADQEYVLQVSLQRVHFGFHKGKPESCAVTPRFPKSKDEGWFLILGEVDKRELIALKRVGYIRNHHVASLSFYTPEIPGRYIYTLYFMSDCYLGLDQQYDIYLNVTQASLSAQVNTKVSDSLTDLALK
ASCC3 helicase region (ASCC3^HR, residues 401-2202): residues 401-2202 of Q8N3C0

Residue numbers refer to the chain shown, from its start. These are yes or no findings as the source states them, for the method shown. For some assays here: In cells and extracts the contact can be indirect. Some entries that bind do so weakly or less than the wild type. For some assays here: Where a sequence is shown, tags or fusion partners need not be part of it.

Assay [1] addresses T1, N-terminally HA-tagged TRIP4^C171A-C184A (human) (UniProt Q15650).
T1 sequence: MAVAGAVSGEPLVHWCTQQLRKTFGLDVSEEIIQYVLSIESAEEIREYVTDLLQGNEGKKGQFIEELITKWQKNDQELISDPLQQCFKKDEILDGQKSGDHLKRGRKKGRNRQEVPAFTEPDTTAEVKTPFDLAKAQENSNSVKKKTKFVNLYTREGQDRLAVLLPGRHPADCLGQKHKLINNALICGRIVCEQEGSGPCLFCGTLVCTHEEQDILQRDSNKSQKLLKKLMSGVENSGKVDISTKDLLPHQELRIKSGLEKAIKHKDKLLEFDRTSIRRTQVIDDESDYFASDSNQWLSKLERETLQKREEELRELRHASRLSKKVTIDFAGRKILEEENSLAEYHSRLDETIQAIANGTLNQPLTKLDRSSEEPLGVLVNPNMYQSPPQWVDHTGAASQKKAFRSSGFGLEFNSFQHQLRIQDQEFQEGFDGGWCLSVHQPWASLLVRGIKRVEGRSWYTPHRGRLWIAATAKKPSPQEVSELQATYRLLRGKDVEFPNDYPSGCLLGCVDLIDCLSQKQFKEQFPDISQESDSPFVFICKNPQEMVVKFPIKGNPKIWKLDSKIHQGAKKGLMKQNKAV
Put plainly: co-IP; HA-tagged TRIP4 variants precipitated from transfected 293T lysates with α-HA beads; lysis at 300 mM KCl, binding and washes at 150 mM KCl, 4 °C; western blot for endogenous ASCC3. On the technique in general: In western blotting, separated proteins are transferred to a membrane and probed.

Assay [2] has as its target T2, N-terminally HA-tagged TRIP4^Δ168-219 (human) (UniProt Q15650).
T2 sequence: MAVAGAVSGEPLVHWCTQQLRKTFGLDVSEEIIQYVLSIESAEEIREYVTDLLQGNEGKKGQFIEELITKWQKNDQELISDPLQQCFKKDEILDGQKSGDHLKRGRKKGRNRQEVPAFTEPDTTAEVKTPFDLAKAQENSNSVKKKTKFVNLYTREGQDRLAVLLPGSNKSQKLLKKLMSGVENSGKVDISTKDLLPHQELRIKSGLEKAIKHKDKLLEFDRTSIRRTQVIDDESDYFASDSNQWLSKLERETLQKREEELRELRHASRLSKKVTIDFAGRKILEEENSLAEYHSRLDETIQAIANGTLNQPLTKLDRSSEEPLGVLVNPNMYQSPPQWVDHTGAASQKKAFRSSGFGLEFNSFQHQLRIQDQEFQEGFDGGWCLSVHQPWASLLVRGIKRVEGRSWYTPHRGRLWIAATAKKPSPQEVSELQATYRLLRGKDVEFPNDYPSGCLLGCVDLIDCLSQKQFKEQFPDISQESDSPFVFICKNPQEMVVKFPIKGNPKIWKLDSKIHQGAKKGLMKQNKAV
The assay is described as above.

For assay [3], the target named is T3, N-terminally HA-tagged wild-type TRIP4 (human) (UniProt Q15650).
T3 sequence: T1 sequence with A171C, A184C
The description is as above.

The target in assay [4] is T4, N-terminally Flag-tagged TRIP4^Δ1-276 (human) (UniProt Q15650).
T4 sequence: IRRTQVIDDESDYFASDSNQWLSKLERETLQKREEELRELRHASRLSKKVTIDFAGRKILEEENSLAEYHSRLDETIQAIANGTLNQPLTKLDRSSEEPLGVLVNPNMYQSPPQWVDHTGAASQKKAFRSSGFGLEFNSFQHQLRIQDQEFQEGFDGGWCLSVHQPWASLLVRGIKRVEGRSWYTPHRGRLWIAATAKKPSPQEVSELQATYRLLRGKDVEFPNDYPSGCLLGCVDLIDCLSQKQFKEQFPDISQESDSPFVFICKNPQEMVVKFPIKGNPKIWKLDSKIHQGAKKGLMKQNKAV
Put plainly: co-IP; Flag/His-tagged TRIP4 variants precipitated from cell lysates with α-Flag-M2 magnetic beads (50 mM Tris-HCl pH 7.4, 150 mM NaCl, 0.5 mM EDTA, 0.1% Triton-X-100, 10% glycerol), eluted with 3xFlag peptide; western blot for ASCC1, ASCC2, ASCC3.

Assay [5] deals with T5, N-terminally Flag-tagged full-length TRIP4 (human) (UniProt Q15650).
T5 sequence: T1 sequence with A171C, A184C
The assay is described as above.

The target in assay [6] is T6, C-terminally Flag-tagged full-length TRIP4 (human) (UniProt Q15650).
T6 sequence: T1 sequence with A171C, A184C
Described as above.

The target in assay [7] is T7, C-terminally Flag-tagged TRIP4^Δ1-276 (human) (UniProt Q15650).
T7 sequence: T4 sequence
Described as above.

The target in assay [8] is T8, N-terminally Flag-tagged TRIP4^Δ403-581 (human) (UniProt Q15650).
T8 sequence: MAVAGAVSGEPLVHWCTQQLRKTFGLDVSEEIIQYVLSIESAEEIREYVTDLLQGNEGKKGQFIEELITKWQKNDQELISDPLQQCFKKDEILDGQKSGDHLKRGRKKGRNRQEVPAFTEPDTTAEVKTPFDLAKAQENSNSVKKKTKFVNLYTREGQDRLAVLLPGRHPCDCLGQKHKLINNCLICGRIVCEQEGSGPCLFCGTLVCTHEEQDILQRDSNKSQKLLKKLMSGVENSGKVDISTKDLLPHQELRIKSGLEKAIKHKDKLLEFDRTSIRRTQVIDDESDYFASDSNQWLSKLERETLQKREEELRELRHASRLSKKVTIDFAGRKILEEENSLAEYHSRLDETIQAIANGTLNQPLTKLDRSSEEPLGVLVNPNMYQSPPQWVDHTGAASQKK
The description is as above.

Assay [9] deals with T9, C-terminally Flag-tagged TRIP4^Δ403-581 (human) (UniProt Q15650).
T9 sequence: T8 sequence
The description is as above.

In assay [10] the target is ASCC3 helicase region (ASCC3^HR, residues 401-2202) (human) (UniProt Q8N3C0). Put plainly: condition: only with TRIP4 pre-bound (120 pmol pre-formed ASCC3^HR-TRIP4 complex, 360 pmol ALKBH3); SEC; analytical SEC, Superdex 200 3.2/300; 120 pmol pre-formed ASCC3^HR-TRIP4 complex mixed with 360 pmol ALKBH3 in 100 µl, 30 min on ice; fractions by SDS-PAGE, Coomassie; both purified.

The target in assay [11] is T10, TRIP4 (activating signal co-integrator 1/thyroid receptor-interacting protein 4), full length, produced in E. coli (human) (UniProt Q15650).
T10 sequence: T1 sequence with A171C, A184C
Put plainly: SEC; analytical SEC for competitive binding, Superdex 200 3.2/300; 120 pmol ASCC3^HR with 360 pmol TRIP4 and/or ALKBH3 in 100 µl, 30 min on ice; fractions by SDS-PAGE, Coomassie; both purified. Background: Size exclusion chromatography separates by hydrodynamic size, large species first.

For the molecule “ASCC3 (activating signal co-integrator 1 complex subunit 3), endogenous (from UniProt Q8N3C0 1-2202)”, the binding entry in assay [1] was “no binding”; in assay [2] it was “no binding”; in assay [3] it was “binds”; in [4] it was “no binding”; in assay [5] it was “binds”; in assay [6] it was “binds”. The binding entry in [7] is given as “no binding”; in assay [8], “binds”; in [9] it was “binds”.

B1: ALKBH3 (alpha-ketoglutarate/iron-dependent dioxygenase, DNA/RNA dealkylase), full length (enzyme, human, UniProt Q96Q83 1-286, looked up)
chain: MEEKRRRARVQGAWAAPVKSQAIAQPATTAKSHLHQKPGQTWKNKEHHLSDREFVFKEPQQVVRRAPEPRVIDREGVYEISLSPTGVSRVCLYPGFVDVKEADWILEQLCQDVPWKQRTGIREDITYQQPRLTAWYGELPYTYSRITMEPNPHWHPVLRTLKNRIEENTGHTFNSLLCNLYRNEKDSVDWHSDDEPSLGRCPIIASLSFGATRTFEMRKKPPPEENGDYTYVERVKIPLDHGTLLIMEGATQADWQHRVPKEYHSREPRVNLTFRTVYPDPRGAPW
notes: ALKBH3, human, full length, amplified from a cDNA library of human HeLa cells, pETM-11; source: E. coli C2566, purified (Ni-NTA, TEV, heparin, SEC); not shown: His6, N-terminal, cleaved
Regarding B1, the results for the binding entry in [10] and in assay [11] were “no binding” and “no binding (tested: 360 pmol each in 100 µl)”, respectively.
